{
  "source": "PubChem BioAssay AID686971",
  "about": "(National Center for Advancing Translational Sciences (NCATS), 2013)",
  "note": "Out of some 360,000 compounds screened, about 7,500 (2.1%) were called active. This list was built around the results that the source calls inconclusive (neither active nor inactive); the mix of calls is not that of the screen. Calls come from the whole dose curve; as a rule, active = well fitted cell-killing curve with a large enough effect; inconclusive = small, poorly fitted or top-dose-only effect, or effect the other way, or another doubt; inactive = no such curve, though single readings can be large or run the other way. Potencies of inconclusive entries are left out as doubtful fits. Potency is the fitted concentration of half-maximal effect; tags give direction and shape of the fitted curve.",
  "data": [
    {"assay": "qHTS for induction of synthetic lethality in tumor cells producing 2HG: qHTS for the HT-1080-IDH1KD cell line;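 for activity, negative = toxicity: 0% = DMSO wells and -100% = cell-free medium wells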", "settings": "HT-1080 IDH1 knockdown viability, ATP luminescence, 48 h; activity, negative = toxicity: at 46.1 µM (top of the series) unless noted", "outline": "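In this qHTS, HT-1080 cells depleted of IDH1 are exposed for 48 h at 37 °C to compound titrations. Toxicity is scored from CellTiter-Glo luminescence, with DMSO as full viability and medium alone as none.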", "values": [
      {"molecule": "COc1ccc(OC)c(S(=O)(=O)Nc2ccc(C)c(C)c2)c1", "Potency": "inconclusive [cytotoxic, single point]"},
      {"molecule": "NS(=O)(=O)c1ccc(CCNC(=O)CCCn2ncn3c(cc4occc43)c2=O)cc1", "Potency": "inconclusive [rising, single point]"},
      {"molecule": "COc1ccc(-c2nnc(NC(=O)c3cc(Cl)ccc3Cl)o2)cc1", "Potency": "inactive"},
      {"molecule": "O=C(NCc1ccncc1)[C@@H]1CCCN1C(=O)[C@H]1CCCN1", "Potency": "inactive"},
      {"molecule": "CN1CCN(C(=O)c2cccc(-c3cccc4nccn34)c2)CC1", "Potency": "inactive"},
      {"molecule": "CC(=O)Nc1ccc(CNc2nc3cc(-c4cccc(C(F)(F)F)c4)sc3c(=O)n2C)cc1", "activity, negative = toxicity": "inconclusive: -6.34% [cytotoxic]"},
      {"molecule": "O=C(O)CCN1C(=O)c2ccc(NC(=O)C(c3ccccc3)c3ccccc3)cc2C1=O", "Potency": "inactive"},
      {"molecule": "O=c1cc2oc3cc(O)c(O)cc3c(-c3ccccc3[N+](=O)[O-])c-2cc1O", "Potency": "active: 20.6 µM"},
      {"molecule": "CC(=O)N1Cc2cc(C(=O)NCC(F)(F)F)nc(-c3cccc(-c4cc5ccccc5o4)c3)c2[C@@H]1CCO", "Potency": "inactive"},
      {"molecule": "COc1cc(C(=O)Nc2ccc(N(C)C)cc2)cc(OC)c1OC", "Potency": "inconclusive [cytotoxic, single point]"},
      {"molecule": "Cc1cc(N2CCOCC2)nc(SCc2ccc(Cl)cc2Cl)n1", "activity, negative = toxicity": "inactive: 7.2% [at 9.24 µM]"},
      {"molecule": "COc1ccc(Nc2ccccc2N)cc1", "Potency": "inconclusive [cytotoxic, partial curve]"},
      {"molecule": "COc1ccc(C2c3c(-c4cc(Cl)c(C)cc4O)n[nH]c3C(=O)N2Cc2cccnc2)cc1OC", "note": "(centres undefined)", "Potency": "inactive"},
      {"molecule": "Cc1cccc(/C=C2/SC(=O)N(Cc3ccccc3Cl)C2=O)n1", "activity, negative = toxicity": "inactive: 5.86% [at 9.24 µM]"},
      {"molecule": "COc1ccc(/C=C\\C(=O)c2c(O)ccc3c(C)cc(=O)oc23)cc1OC", "Potency": "inconclusive [cytotoxic, single point]"},
      {"molecule": "CCCOc1c(Br)cc(/C=N/O)cc1OC", "Potency": "inconclusive [cytotoxic, single point]"},
      {"molecule": "O=C(NC1CCCCC1)c1sc(=S)n2c1[nH]c(=O)c1ccccc12", "Potency": "inconclusive [cytotoxic, single point]"},
      {"molecule": "O=C(CN1CCCN(Cc2ccc(F)cc2Cl)C1=O)NC1CCCCCCC1", "Potency": "inconclusive [cytotoxic, single point]"},
      {"molecule": "COc1cc(/C=N/NC(N)=S)ccc1OC(=O)c1ccc(C)cc1", "Potency": "inconclusive [cytotoxic, single point]"},
      {"molecule": "Cc1c(CCC(=O)NCCCn2ccnc2)c(=O)oc2c(C)c3occ(C(C)(C)C)c3cc12", "Potency": "active: 18.4 µM"},
      {"molecule": "COc1cccc(C(C(=O)NCc2ccccc2)N2CCN(c3cccc(C)c3C)CC2)c1OC", "note": "(centres undefined)", "Potency": "inconclusive [cytotoxic, single point]"},
      {"molecule": "Cc1cc(C)c(C)c(S(=O)(=O)NCC(=O)Nc2ccc(F)cc2)c1C", "Potency": "inconclusive [cytotoxic, single point]"},
      {"molecule": "O=C(/C=C/c1c(F)cccc1Cl)c1ccc(O)cc1", "Potency": "inconclusive [cytotoxic, single point]"},
      {"molecule": "CCN(CC)CCCN(C(=O)c1ccc(OC)cc1)c1nc(-c2ccc(OC)cc2)cs1", "Potency": "active: 14.6 µM"},
      {"molecule": "COc1cc(C(=O)N(Cc2cccnc2)Cc2cc3cc4c(cc3[nH]c2=O)OCCO4)cc(OC)c1OC", "Potency": "inconclusive [cytotoxic, single point]"},
      {"molecule": "O=C1c2ccccc2-c2onc3c(N4CCN(CCO)CC4)cc(N4CCN(C(=O)c5ccco5)CC4)c1c23", "Potency": "inconclusive [cytotoxic, single point]"},
      {"molecule": "CC(=O)c1ccc(N2CCN(S(=O)(=O)c3csc(C(N)=O)c3)CC2)cc1", "Potency": "inconclusive [cytotoxic, single point]"},
      {"molecule": "C/C(N)=C(/C#N)C(=O)COC(=O)C1CCC(C(C)(C)C)CC1", "note": "(centres undefined)", "Potency": "inconclusive [cytotoxic, partial curve]"},
      {"molecule": "CC(=O)Nc1cccc(-c2cc(NC=O)c3ncc(-c4ccc(F)c(Cl)c4)n3c2)c1", "Potency": "inconclusive [cytotoxic, single point]"},
      {"molecule": "CCOC(=O)c1cnc(Nc2nc3ccccc3o2)nc1C", "Potency": "active: 3.55 µM"},
      {"molecule": "O=C(NCCC1=CCCCC1)C1CCC(=O)N(Cc2ccc(Cl)cc2)C1", "note": "(centres undefined)", "Potency": "inactive"},
      {"molecule": "Cc1nc(NCC(c2ccccc2)N(C)C)c2c(C)c(C)sc2n1", "note": "(centres undefined)", "Potency": "inconclusive [cytotoxic, single point]"},
      {"molecule": "CCc1nn2cc(C(=O)c3cc(Cl)ccc3O)cnc2c1-c1ccc(F)cc1", "Potency": "inconclusive [cytotoxic, single point]"},
      {"molecule": "COc1ccc(N(C(=O)c2cc3ccccc3oc2=O)C2C=CS(=O)(=O)C2)cc1", "note": "(centres undefined)", "Potency": "inactive"},
      {"molecule": "CCCNC(=S)N1CCC(C(=O)c2ccc3c(c2)OCCO3)CC1", "Potency": "inactive"},
      {"molecule": "Cc1nn(Cc2cccc(F)c2)c(C)c1NC(=O)c1c(Cl)cnn1C", "Potency": "inactive"},
      {"molecule": "O=C(Nc1ccc(Cl)c(C(F)(F)F)c1)C1Cc2c(-c3ccc4c(c3)OCO4)ccnc2O1", "note": "(centres undefined)", "Potency": "active: 20.6 µM"},
      {"molecule": "NC(c1csc(Nc2ccc(C(F)(F)F)cn2)n1)C1CCCCC1", "note": "(centres undefined)", "Potency": "active: 18.4 µM"},
      {"molecule": "O=C(CNC(=O)c1ccco1)N=Nc1c(O)n(CCc2ccccc2)c2ccccc12", "Potency": "active: 1.84 µM"},
      {"molecule": "Cc1nc2c(F)c(F)c(C(F)(F)F)c(F)c2[nH]1", "Potency": "inconclusive [cytotoxic, partial curve]"},
      {"molecule": "O=C(NCC1CCCO1)c1ccc2c(c1)S(=O)(=O)c1ccccc1C2=O", "note": "(centres undefined)", "Potency": "inactive"},
      {"molecule": "CN(Cc1ccccc1)CC(O)COc1ccc(CNCCOc2cccnc2)cc1", "note": "(centres undefined)", "Potency": "inactive"},
      {"molecule": "CC1CC1c1ccc(/C=C(\\C#N)C(=O)Nc2ccccc2Cl)o1", "note": "(centres undefined)", "Potency": "inactive"},
      {"molecule": "Cc1cc(C)c2nc(N3CCCC(C(=O)N4CCC(C(N)=O)CC4)C3)sc2c1", "note": "(centres undefined)", "Potency": "inconclusive [cytotoxic, single point]"},
      {"molecule": "CCOc1ccc(NC(=S)Nc2ccc(C)c([N+](=O)[O-])c2)cc1", "Potency": "inactive"},
      {"molecule": "CCc1cc(Cl)c(OC)c(C(=O)NC[C@@H]2CCCN2CC)c1O", "Potency": "inconclusive [cytotoxic, single point]"},
      {"molecule": "CC(C)c1cc(C(=O)NC2CCCc3c2cnn3-c2ccccc2F)no1", "note": "(centres undefined)", "Potency": "inconclusive [cytotoxic, full curve]"},
      {"molecule": "CCN1CCN(c2cc(C)c3cc(NC(=O)CCC(=O)N4CCN(c5ccccc5)CC4)ccc3n2)CC1", "Potency": "inconclusive [cytotoxic, single point]"},
      {"molecule": "CNS(=O)(=O)c1cc(Br)ccc1S(=O)c1ccccc1C(=O)O", "note": "(centres undefined)", "activity, negative = toxicity": "inconclusive: 35.5%"},
      {"molecule": "COc1ccc(S(=O)(=O)N2CCC(C(=O)Nc3cccc(C(C)=O)c3)CC2)cc1C", "Potency": "inconclusive [cytotoxic, single point]"},
      {"molecule": "COc1cc(OC)cc(-c2cc3cc4c(cc3cn2)OCO4)c1", "Potency": "active: 0.58 µM"},
      {"molecule": "COc1ccccc1CNC(=O)C1CCCN(S(=O)(=O)c2ccc3c(c2)C(C)(C)C(=O)N3C)C1", "note": "(centres undefined)", "Potency": "inactive"},
      {"molecule": "Cc1ccccc1-n1sc2cc(F)ccc2c1=O", "Potency": "active: 20.6 µM"},
      {"molecule": "CC(Sc1ncnc2sc(-c3ccccc3)cc12)C(=O)NCC1CCCO1", "note": "(centres undefined)", "Potency": "inconclusive [cytotoxic, partial curve]"},
      {"molecule": "CN(C)c1ccc(C(=N)Cc2ccc3ccccc3n2)cc1", "Potency": "inactive"},
      {"molecule": "O=C(Nc1nc(-c2ccc(Cl)s2)cs1)c1cccs1", "Potency": "inconclusive [cytotoxic, single point]"},
      {"molecule": "COc1ccc(OC)c(-c2cc(C(=O)Nc3c(C)nn(Cc4ccc(Cl)cc4)c3C)no2)c1", "Potency": "inconclusive [cytotoxic, single point]"},
      {"molecule": "CC(=O)CC1c2cc(F)ccc2C=C(c2ccsc2)N1c1ccc(C#CC2(O)CCCCC2)cc1", "note": "(centres undefined)", "Potency": "inconclusive [cytotoxic, single point]"},
      {"molecule": "Cc1n(Cc2ccccc2)c2ccccc2[n+]1Cc1ccccc1", "Potency": "inconclusive [cytotoxic, partial curve]"},
      {"molecule": "Cc1nc(NC(=O)c2ccccc2)sc1-c1csc(NCc2ccco2)n1", "Potency": "inconclusive [cytotoxic, single point]"},
      {"molecule": "O=C(c1cc(-c2ccncc2)nc2ccccc12)N1CCOCC1", "Potency": "inactive"},
      {"molecule": "CC1=Nc2cc(C(=O)NCC3CCCO3)ccc2Sc2ccc(C)cc21", "note": "(centres undefined)", "Potency": "inconclusive [cytotoxic, full curve, poor fit]"},
      {"molecule": "Cc1ccc2c(c1)COc1c3ccc(C(=O)NC(C)C)cc3nn1-2", "Potency": "inactive"},
      {"molecule": "O=C1Nc2cc(C(=O)NCCN3CCCCCC3)ccc2S/C1=C/c1ccccc1F", "Potency": "inconclusive [cytotoxic, single point]"},
      {"molecule": "COc1cc(C2=NC(CO)(CO)CO2)cc(OC)c1OC", "Potency": "inactive"},
      {"molecule": "CCCCc1c(-c2ccccc2OC)ncn1CCc1cccc(F)c1", "Potency": "active: 18.4 µM"},
      {"molecule": "Cc1ccc(NC(=O)CCSc2nnc(Cc3ccccc3)o2)cc1", "Potency": "inactive"},
      {"molecule": "CCCCOC(=O)CCc1c(C)n[nH]c1C", "Potency": "inactive"},
      {"molecule": "COCCN(CCOC)S(=O)(=O)c1ccc(C(=O)Nc2nc3c(s2)CCc2ccccc2-3)cc1", "Potency": "inconclusive [cytotoxic, single point]"},
      {"molecule": "CC(C)CNC(=O)[C@H]1N2C(=O)c3ccccc3C2SC1(C)C", "note": "(some centres undefined)", "Potency": "inactive"},
      {"molecule": "COc1ccc(CNC(=O)C(c2ccc(C)cc2)N(Cc2cccs2)C(=O)c2ccc3c(c2)OCCO3)cc1", "note": "(centres undefined)", "Potency": "active: 12.6 µM"},
      {"molecule": "CCCCCOc1ccc(CSC(=N)N)cc1[N+](=O)[O-]", "Potency": "active: 16.4 µM"},
      {"molecule": "C[C@H](C(=O)CC(=O)OC(C)(C)C)[C@H](O)c1ccccc1", "Potency": "inactive"},
      {"molecule": "Cc1c(Cl)ccc2c1NC(=O)[C@]21N[C@@H](Cc2ccccc2)[C@H]2C(=O)N(c3ccc(F)cc3)C(=O)[C@H]21", "Potency": "inconclusive [cytotoxic, single point]"}
    ]}
  ]
}
